Data published in publication PMC5210502.
These are yes or no findings as the source states them, for the method shown. Binding seen in cells or lysates may run through a third protein. Some results given as binding are weak or reduced against the parent protein; the word gives no strength. For part of these data: Sequences can lack the tags named with a protein.

Chains of the proteins cited; added tags and fusions are not shown.
UniProt Q8IUC6: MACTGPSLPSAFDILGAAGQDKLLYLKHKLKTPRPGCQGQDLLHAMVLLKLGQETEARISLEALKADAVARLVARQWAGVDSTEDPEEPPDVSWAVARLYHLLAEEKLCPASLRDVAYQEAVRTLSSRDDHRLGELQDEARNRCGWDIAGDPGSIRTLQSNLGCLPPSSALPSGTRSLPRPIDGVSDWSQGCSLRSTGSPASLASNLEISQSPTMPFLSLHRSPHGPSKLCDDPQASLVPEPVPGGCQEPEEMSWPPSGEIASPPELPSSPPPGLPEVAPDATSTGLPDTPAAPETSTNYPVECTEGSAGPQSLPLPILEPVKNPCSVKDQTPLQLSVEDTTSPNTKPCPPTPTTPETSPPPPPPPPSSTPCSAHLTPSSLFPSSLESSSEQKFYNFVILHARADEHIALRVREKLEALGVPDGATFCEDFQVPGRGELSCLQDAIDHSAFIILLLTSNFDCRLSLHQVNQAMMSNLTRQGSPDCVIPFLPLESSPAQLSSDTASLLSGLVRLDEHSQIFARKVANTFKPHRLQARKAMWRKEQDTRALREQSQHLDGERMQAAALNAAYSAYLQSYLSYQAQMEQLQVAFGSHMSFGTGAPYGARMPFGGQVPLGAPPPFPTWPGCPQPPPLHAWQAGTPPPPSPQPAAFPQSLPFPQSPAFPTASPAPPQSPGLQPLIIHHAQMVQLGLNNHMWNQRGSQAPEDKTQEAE
UniProt O00463: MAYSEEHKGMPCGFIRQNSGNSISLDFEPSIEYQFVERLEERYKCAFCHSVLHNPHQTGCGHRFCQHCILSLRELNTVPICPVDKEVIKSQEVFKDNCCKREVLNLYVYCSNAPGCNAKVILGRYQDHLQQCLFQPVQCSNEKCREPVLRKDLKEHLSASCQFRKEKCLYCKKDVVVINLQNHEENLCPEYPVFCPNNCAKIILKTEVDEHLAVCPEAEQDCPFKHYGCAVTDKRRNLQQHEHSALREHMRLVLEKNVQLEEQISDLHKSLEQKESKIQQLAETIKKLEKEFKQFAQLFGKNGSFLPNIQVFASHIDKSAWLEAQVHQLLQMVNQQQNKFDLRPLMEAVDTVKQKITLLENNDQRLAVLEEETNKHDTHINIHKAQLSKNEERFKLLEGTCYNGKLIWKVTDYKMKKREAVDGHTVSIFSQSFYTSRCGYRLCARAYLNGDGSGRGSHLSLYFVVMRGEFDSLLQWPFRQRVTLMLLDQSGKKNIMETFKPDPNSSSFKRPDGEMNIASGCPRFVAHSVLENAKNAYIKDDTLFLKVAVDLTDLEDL

Key:
[1] = target: T1, endogenous TRAF3 of macrophages (mouse (endogenous in macrophages)) (UniProt Q60803); assay: co-IP
T1 sequence: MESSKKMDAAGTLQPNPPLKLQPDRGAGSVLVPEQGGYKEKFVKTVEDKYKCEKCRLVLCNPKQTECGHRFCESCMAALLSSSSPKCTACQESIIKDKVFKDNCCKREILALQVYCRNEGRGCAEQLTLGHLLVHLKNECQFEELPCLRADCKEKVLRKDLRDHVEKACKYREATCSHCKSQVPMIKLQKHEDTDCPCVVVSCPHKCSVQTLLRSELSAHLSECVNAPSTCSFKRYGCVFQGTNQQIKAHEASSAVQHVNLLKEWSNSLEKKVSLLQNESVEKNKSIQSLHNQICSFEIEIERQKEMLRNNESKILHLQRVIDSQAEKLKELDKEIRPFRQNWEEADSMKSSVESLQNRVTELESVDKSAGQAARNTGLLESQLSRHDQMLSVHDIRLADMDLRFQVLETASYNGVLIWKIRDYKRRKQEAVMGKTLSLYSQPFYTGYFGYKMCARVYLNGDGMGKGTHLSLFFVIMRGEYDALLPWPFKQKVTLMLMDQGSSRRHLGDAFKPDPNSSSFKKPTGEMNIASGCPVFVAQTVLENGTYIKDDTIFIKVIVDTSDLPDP

[2] = target: endogenous TRIF of THP-1 cells (human (endogenous in THP-1)) (UniProt Q8IUC6); assay: co-IP; endogenous proteins, THP-1 cell extracts, cells treated with poly(I:C) overnight
FLAG-tagged TRAF2 = target: T2, FLAG-tagged TRAF2 (UniProt Q12933); assay: co-IP; 293T cells co-transfected with a FLAG-tagged protein and HA-FOSL1; IP with anti-FLAG beads, immunoblot with anti-HA
T2 sequence: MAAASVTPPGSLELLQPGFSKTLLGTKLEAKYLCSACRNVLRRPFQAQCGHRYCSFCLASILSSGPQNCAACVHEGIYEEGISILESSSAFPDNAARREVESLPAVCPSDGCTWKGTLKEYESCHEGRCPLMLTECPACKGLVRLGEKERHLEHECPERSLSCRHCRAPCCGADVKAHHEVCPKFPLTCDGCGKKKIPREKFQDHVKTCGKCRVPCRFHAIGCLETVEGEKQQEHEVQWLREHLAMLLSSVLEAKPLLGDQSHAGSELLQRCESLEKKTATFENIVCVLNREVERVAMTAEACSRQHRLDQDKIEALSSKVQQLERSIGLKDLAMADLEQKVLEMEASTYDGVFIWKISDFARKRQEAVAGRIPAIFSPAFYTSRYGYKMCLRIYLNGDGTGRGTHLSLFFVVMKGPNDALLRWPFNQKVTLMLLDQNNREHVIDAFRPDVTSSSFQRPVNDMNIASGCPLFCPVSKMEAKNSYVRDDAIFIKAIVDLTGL

[3] = target: T3, FLAG-tagged Tank-binding kinase 1 (TBK1) (UniProt Q9UHD2); assay: as above
T3 sequence: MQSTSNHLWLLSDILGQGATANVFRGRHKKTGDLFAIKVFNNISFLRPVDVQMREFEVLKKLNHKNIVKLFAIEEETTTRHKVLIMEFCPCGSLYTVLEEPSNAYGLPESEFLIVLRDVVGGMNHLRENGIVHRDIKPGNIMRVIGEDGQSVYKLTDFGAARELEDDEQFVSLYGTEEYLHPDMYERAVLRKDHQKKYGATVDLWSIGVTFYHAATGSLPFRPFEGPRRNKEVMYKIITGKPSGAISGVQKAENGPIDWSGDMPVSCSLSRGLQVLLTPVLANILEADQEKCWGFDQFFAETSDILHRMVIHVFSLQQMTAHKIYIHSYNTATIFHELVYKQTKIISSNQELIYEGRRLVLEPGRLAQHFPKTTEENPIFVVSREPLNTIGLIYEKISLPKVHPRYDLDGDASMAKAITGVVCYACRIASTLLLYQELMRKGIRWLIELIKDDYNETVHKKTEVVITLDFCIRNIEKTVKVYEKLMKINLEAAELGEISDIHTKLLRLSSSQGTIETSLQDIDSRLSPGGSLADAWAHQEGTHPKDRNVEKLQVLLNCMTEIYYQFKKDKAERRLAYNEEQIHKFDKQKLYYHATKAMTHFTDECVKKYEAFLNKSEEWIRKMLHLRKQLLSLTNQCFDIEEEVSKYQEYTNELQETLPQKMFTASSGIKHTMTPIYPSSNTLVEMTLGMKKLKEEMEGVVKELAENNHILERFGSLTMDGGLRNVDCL

FLAG-tagged TRAF5 = FLAG-tagged TRAF5 (UniProt O00463); assay: as above
[4] = target: T4, FLAG-tagged retinoic acid-inducible gene I (RIG-I) (UniProt O95786); assay: as above
T4 sequence: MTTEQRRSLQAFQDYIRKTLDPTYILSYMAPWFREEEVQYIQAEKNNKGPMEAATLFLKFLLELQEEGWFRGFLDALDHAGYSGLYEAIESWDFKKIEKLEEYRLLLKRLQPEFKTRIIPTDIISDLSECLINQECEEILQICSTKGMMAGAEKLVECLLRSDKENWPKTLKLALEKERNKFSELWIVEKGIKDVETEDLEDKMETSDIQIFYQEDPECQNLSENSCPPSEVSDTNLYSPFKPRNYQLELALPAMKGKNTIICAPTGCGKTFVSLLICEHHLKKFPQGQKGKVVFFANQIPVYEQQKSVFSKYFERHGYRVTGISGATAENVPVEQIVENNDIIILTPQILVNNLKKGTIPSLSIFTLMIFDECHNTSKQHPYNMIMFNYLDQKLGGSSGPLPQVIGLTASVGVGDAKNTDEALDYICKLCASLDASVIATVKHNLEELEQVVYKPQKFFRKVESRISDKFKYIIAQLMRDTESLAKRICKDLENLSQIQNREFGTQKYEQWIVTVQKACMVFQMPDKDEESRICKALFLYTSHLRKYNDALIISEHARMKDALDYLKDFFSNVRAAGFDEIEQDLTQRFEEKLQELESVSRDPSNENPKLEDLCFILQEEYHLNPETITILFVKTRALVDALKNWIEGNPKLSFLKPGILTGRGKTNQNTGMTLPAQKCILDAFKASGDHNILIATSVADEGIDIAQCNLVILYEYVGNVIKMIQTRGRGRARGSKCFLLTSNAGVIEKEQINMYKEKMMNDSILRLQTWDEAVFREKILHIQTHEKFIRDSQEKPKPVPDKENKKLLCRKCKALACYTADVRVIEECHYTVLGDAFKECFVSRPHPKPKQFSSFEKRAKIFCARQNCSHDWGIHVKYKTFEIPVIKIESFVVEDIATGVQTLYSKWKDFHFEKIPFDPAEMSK

B1: endogenous FOSL1 of macrophages (protein, UniProt P48755 1-273)
chain: MYRDYGEPGPSSGAGSPYGRPAQPPQAQAQTAQQQKFHLVPSIDSSSQELHWMVQPHFLGPTGYPRPLAYPQYSPPQPRPGVIRALGPPPGVRRRPCEQISPEEEERRRVRRERNKLAAAKCRNRRKELTDFLQAETDKLEDEKSGLQREIEELQKQKERLELVLEAHRPICKIPEGDKKDPGGSGSTSGASSPPAPGRPVPCISLSPGPVLEPEALHTPTLMTTPSLTPFTPSLVFTYPSTPEPCSSAHRKSSSSSGDPSSDPLGSPTLLAL
Question: Which binding [1] does the source give for B1 here?
Answer: Its binding is “binds”.

B2: endogenous FOSL1 of THP-1 cells (protein, UniProt P15407 1-271)
chain: MFRDFGEPGPSSGNGGGYGGPAQPPAAAQAAQQKFHLVPSINTMSGSQELQWMVQPHFLGPSSYPRPLTYPQYSPPQPRPGVIRALGPPPGVRRRPCEQISPEEEERRRVRRERNKLAAAKCRNRRKELTDFLQAETDKLEDEKSGLQREIEELQKQKERLELVLEAHRPICKIPEGAKEGDTGSTSGTSSPPAPCRPVPCISLSPGPVLEPEALHTPTLMTTPSLTPFTPSLVFTYPSTPEPCASAHRKSSSSSGDPSSDPLGSPTLLAL
Question: How did the binding [2] turn out when B2 was run?
Answer: The binding was “binds”.

B3: HA-tagged FOS-like antigen 1 (FOSL1) (protein, UniProt P15407 1-271)
chain: MFRDFGEPGPSSGNGGGYGGPAQPPAAAQAAQQKFHLVPSINTMSGSQELQWMVQPHFLGPSSYPRPLTYPQYSPPQPRPGVIRALGPPPGVRRRPCEQISPEEEERRRVRRERNKLAAAKCRNRRKELTDFLQAETDKLEDEKSGLQREIEELQKQKERLELVLEAHRPICKIPEGAKEGDTGSTSGTSSPPAPCRPVPCISLSPGPVLEPEALHTPTLMTTPSLTPFTPSLVFTYPSTPEPCASAHRKSSSSSGDPSSDPLGSPTLLAL
Question: Which results are given for B3?
Answer: binding (FLAG-tagged TRAF2): no binding; binding [3]: no binding; binding (FLAG-tagged TRAF5): no binding; binding [4]: no binding
